Assay results taken from the supplement of paper PMC11417369.
± gives the standard deviation of the averaged measurements. The list shows a part of the results.

system: PfAP2-EXP AP2 domain (GST-tagged); experiment: gcPBM binding intensity (ln(normalized median fluorescence intensity)); higher = stronger DNA binding
Outline: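 An Agilent 4 × 180k array carrying primer-extended double-stranded 36-bp intergenic genomic probes and negative controls received GST-tagged P. falciparum DNA-binding domains expressed in E. coli, about 25 μg on average, for 1 h. The binding buffer contained 1× PBS, 1% milk, 0.2 mg/ml BSA, 0.5% salmon testes DNA and 0.03% Triton X-100. Binding intensity is the top Masliner-normalised natural-log median intensity across replicate spots of either probe orientation, read after Alexa488 anti-GST antibody staining and a 488 nm scan.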

Row | Sequence | gcPBM binding intensity (ln)
1 | ATATATATATATTTATGTACTTAATAATTTATTCAC [XGTACX_site7301] | 9.79 ± 0.28
2 | TGCAGTCTGGAGAAAAGTACATAGTATCTGGTAACC [XGTACX_site2019] | 8.7 ± 0.42
3 | TTTTTATTACATAATTAAAAAAAATAATAAAATAAA [XGTACX_negctrl_site249] | 8.22 ± 0.41
4 | AATTTAAAATAATATTGTACTTAGATATAAATATGA [XGTACX_site4198] | 8.2 ± 0.4
5 | TAAAAAATATAAACTGCACACACAAAAAAAAAAGAG [CACACA_site8379] | 9.1 ± 0.29
6 | TACATACATACATACACACACACATATATATACATA [CACACA_site853] | 9.19 ± 0.18
7 | ATATCATTAAAAGGATGTACATATGTGTATACAATA [XGTACX_site871] | 9.05 ± 0.45
8 | TAATATCTAAAAAATATATTTTTTATTTTTTATTAA [CACACA_negctrl_site510] | 8.02 ± 0.47
9 | ATGGTACACAAATATACATGCAATAATAAAAAAAAA [TGCATGCA_site879] | 9.15 ± 0.36
10 | CATTAATATATATATACATGCACGTTTTAAAAAAAA [TGCATGCA_site875] | 8.84 ± 0.28
11 | TAATTATGCAGACACACACACACACGCAACTAAAAA [CACACA_site7253] | 8.74 ± 0.47
12 | ATGGGAATATAATTATGTACATATAAAAATTATAAA [XGTACX_site5336] | 8.62 ± 0.34
13 | AAAAAATATTTTTACAGTACATATATATAAAATGTT [XGTACX_site3215] | 8.63 ± 0.34
14 | TCATTTCACGGACACACACACACAATATATTTCCTT [CACACA_site6023] | 8.96 ± 0.45
15 | TAACAAAGGAAAGATATACACACGTATGCATGATAA [CACACA_site2520] | 8.91 ± 0.44
16 | TGTATTAACAAAAAGGTGCGGATATATATAAAAAAT [GTGCAC_site9473] | 9.37 ± 0.63
17 | TTAATATATATATATATATATATATTTTTATTTTTT [CACACA_negctrl_site763] | 8.38 ± 0.092
18 | AAAATGTTATTGGAAAGTACAAAAAAAATTATATAA [XGTACX_site4074] | 8.65 ± 0.37
19 | CATATATAGATATATACACACATATATAAATAAATA [CACACA_site6759] | 8.43 ± 0.35
20 | ATAAAACGTACAATGGTGCATATAAATAATATATAT [GTGCAC_site9960] | 9.15 ± 0.028
21 | TATGTATATTCTTTCAGTACACATAATGTTGTCATA [XGTACX_site8845] | 8.69 ± 0.3
22 | TTCAATATACATATGTGTACTAAAATAAATAGAAAA [XGTACX_site5708] | 8.8 ± 0.37

Row | Sequence | gcPBM binding intensity (ln)
23 | ATTACAACATTTTATACACACGTGATTATTAATTTT [CACACA_site5581] | 8.68 ± 0.38
24 | TAAATATATTTATACACACACACCAAAGCAATAGAT [CACACA_site7393] | 9.12 ± 0.35
25 | GGATTCAAAAAAAAAAATAAAAGTAAATAATAAATA [TGCATGCA_negctrl_site348] | 8.27 ± 0.42
26 | TTTATGAAGTAAAAATATAAATTCACAAAGTTAAAA [CACACA_negctrl_site1476] | 8.37 ± 0.39
27 | AAGAACAGAACGTACACACACATATTTATATTTATA [CACACA_site7594] | 8.48 ± 0.45
28 | TATATTTCAGGGGGGAGTACAAATTTTTTTATATAA [XGTACX_site1600] | 10.9 ± 0.38
29 | TAAGGAAAAAAAATATGTACTTATAGTTCCTTCTTT [XGTACX_site2202] | 8.27 ± 0.42
30 | ATTTGTAATATTAAATGTACAGGTAAGAAATATCAG [XGTACX_site1562] | 9.01 ± 0.44
31 | TTATATATATATATATATATATATATATATATAAAT [GTGCAC_negctrl_site126] | 8.97 ± 0.014
32 | CATTATGTACAAAAAGTGCAATATATATTAACACTG | 8.79 ± 0.16
33 | AACAAAATAAGAAAACGTACAAATGTTTCAAATTCT [XGTACX_site1544] | 8.62 ± 0.56
34 | TTTTCAAAGATATATACACACATGCATATTACGGTG [CACACA_site6505] | 8.7 ± 0.45
35 | TTTTTGAGTGCACATACACACAGACATACATTTAAA [CACACA_site5813] | 9.28 ± 0.22
36 | TTAATAAATATCAATACACACACACTAATGTGAATA [CACACA_site9254] | 8.26 ± 0.48
37 | TATCCATATTTGTTCACACACACACCCATTTATATA [CACACA_site3571] | 9.01 ± 0.52
38 | ATTTTTATGTTGAAAAGTACTTGAATCCCATGTAAC [XGTACX_site4453] | 8.62 ± 0.36
39 | TATTTATTTATTTAGTGTACATTTATATTTGTTCAT [XGTACX_site7575] | 8.74 ± 0.34
40 | TTCTTTTTTTTTAAAACAAACAAACAAACAAACAAA [CACACA_negctrl_site832] | 8.53 ± 0.4
41 | TTAATCTTTCCTACATGTACACACAGAAAAAAAAAA [XGTACX_site5213] | 8.52 ± 0.35
42 | TTGTTCTTTCAAATTATACACACCAAAAAAAAAAAA [CACACA_site3070] | 8.53 ± 0.4
43 | TACAAATGAGAAATATGTACATAAAAAAAAAAAAAT [XGTACX_site801] | 8.77 ± 0.47
44 | AATATAAATAAAAAATTGATTTCTTTAAAAAGGTAT [CACACA_negctrl_site1038] | 8.29 ± 0.54
